Measured values published in paper PMC4336329 (PLoS ONE, 2015).
Among all 310,000 compounds or so, about 14,000 (4.5%) showed an effect of 50% or more. Effects have a minus sign here. The list shows a part of the results.

biological target: human ether-à-go-go-related gene (hERG) potassium channel (human, UniProt Q12809); test: primary screen, population patch clamp on CHO cells stably expressing hERG
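Also: peak tail current of the secondary pulse compared with the same well before compound.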

Chain of human ether-à-go-go-related gene (hERG) potassium channel (Q12809 whole entry, looked up): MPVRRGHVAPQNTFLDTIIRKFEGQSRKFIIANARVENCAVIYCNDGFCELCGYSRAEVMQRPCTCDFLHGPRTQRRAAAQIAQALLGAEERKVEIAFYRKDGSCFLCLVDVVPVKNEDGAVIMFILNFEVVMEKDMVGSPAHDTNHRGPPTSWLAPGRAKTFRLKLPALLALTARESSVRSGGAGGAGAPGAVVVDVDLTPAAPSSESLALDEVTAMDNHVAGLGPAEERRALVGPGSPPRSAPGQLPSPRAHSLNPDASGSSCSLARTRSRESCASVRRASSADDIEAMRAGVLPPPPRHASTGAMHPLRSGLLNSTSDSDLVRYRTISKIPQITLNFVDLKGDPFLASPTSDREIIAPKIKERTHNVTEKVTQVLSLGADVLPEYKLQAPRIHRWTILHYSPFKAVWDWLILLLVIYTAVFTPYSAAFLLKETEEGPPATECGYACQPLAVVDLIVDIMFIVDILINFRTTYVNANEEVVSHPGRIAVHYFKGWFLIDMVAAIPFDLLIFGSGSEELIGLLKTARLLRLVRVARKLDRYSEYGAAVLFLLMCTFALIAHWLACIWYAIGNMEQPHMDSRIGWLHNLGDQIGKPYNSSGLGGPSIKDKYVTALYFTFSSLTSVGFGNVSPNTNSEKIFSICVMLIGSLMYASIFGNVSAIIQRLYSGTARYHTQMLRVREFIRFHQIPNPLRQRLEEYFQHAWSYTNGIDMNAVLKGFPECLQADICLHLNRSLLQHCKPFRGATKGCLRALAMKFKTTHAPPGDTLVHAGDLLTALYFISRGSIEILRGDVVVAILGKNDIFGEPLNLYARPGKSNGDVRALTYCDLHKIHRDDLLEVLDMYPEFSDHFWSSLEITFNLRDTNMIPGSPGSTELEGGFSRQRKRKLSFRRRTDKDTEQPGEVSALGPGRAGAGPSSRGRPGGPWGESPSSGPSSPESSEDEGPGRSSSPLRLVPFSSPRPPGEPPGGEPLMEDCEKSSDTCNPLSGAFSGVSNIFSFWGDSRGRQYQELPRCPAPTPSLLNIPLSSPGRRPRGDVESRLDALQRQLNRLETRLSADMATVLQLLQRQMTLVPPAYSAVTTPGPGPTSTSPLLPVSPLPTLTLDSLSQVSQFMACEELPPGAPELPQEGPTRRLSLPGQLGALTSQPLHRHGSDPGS

Row | Structure (SMILES) | hERG current change (%, negative = inhibition) at 10uM
1 | Cl.c1ccc2c(N3CCOCC3)c3c(nc2c1)CCC3 | -35.2%
2 | CCOc1ccccc1OC(=O)CN1C(=O)c2ccccc2C1=O | 11.6%
3 | O=[N+]([O-])NC1=NCCN1Cc1ccc(Cl)nc1 | 12.7%
4 | CCOC(=O)C1(CCCc2ccccc2)CCN(C(=O)CSC)CC1 | -24.1%
5 | O=C(Nc1cc(Cl)ccc1-n1cncn1)c1ccco1 | -0.0346%
6 | C=C(C)C(=O)Nc1cccc(C2=NOC3(C2)C[C@@H](C(N)=O)N(C(=O)c2ccc(Cl)cc2)C3)c1 (some centres unmarked) | -27.8%
7 | O=C(O)c1ccc(NCCC2=CCCCC2)c([N+](=O)[O-])c1 | 73.7%
8 | CNc1oc(-c2ccccc2Cl)nc1C#N | -6.32%
9 | O=C(N/N=C/C=C/c1ccc([N+](=O)[O-])cc1)C1COc2ccccc2O1 (centres unmarked) | -47.1%
10 | Cc1cccc(C(=O)Nc2nnc(C3=COCCO3)o2)c1 | 19.2%
11 | COc1ccc(OC)c(C2SCCN2S(=O)(=O)c2cccc(C(F)(F)F)c2)c1 (centres unmarked) | 10.9%
12 | COc1ccc(CCN2C(=O)CC(N3CCN(C/C=C/c4ccccc4)CC3)C2=O)cc1OC (centres unmarked) | -43.9%
13 | CS(=O)(=O)Nc1ccccc1C(=O)N1CCCC1 | 5.96%
14 | O=C(NC1CCCCC1)C(c1ccccc1)N(C(=O)Cc1ccsc1)c1ccccc1 (centres unmarked) | 3.59%
15 | COCCCN1C(=O)c2ccc(C(=O)NCCc3ccccc3)cc2C1=O | -5.36%
16 | CN1CCN(C2=C(Cl)C(=O)N(c3ccc(Cl)cc3)C2=O)CC1 | -7.49%
17 | Cc1ccc(Cl)c(Nc2ccccc2C(=O)[O-])c1Cl.[Na+] | -8.67%
18 | O=C(CSc1nc2ccc([N+](=O)[O-])cc2s1)NC1CCS(=O)(=O)C1 (centres unmarked) | -5.62%
19 | CCOC(=O)c1cc2sccc2n1Cc1ccc(C#N)cc1 | -25.2%
20 | CCc1nc(Nc2ccc3c(c2)OCCO3)c2oc3ccccc3c2n1.Cl | 4.26%
21 | COC(=O)C1=C(C)NC(C)=C(C(=O)OCC2CCCO2)C1c1ccc(Cl)c([N+](=O)[O-])c1 (centres unmarked) | -10.3%
22 | O=C(Nc1nc2c(Br)cc(Br)cc2c(=O)s1)c1ccco1 | 7.2%

Row | Structure (SMILES) | hERG current change (%, negative = inhibition) at 10uM
23 | Cc1nnc(C)c2c(C)n(N)c(C)c12 | -13.4%
24 | COc1ccccc1P(=O)(c1ccccc1)c1ccccc1NC(C)=O (centres unmarked) | 14.3%
25 | CCCCOP(=O)(c1ccc(N(C)C)cc1)C(Nc1ccccc1)c1ccccc1 (centres unmarked) | -22.7%
26 | O=C(Cc1cn(Cc2cccc(Cl)c2)c2ccccc12)N1CCCCCC1 | -4.89%
27 | CCOC(=O)c1c(NC(=O)CCN2C(=O)c3ccccc3C2=O)sc(C(=O)OC(C)C)c1C | -4.35%
28 | O=[N+]([O-])c1ccc(N2CCCC2)c2ccncc12 | -0.0743%
29 | CCCCn1cnc2c(c(-c3ccccc3)c(-c3ccccc3)n2Cc2ccco2)c1=N | -75.1%
30 | COc1ccc(C(C)=O)c(OC(=O)c2ccco2)c1 | 3.48%
31 | O=C(Cn1ncc2c3ccccc3n(Cc3ccccc3)c2c1=O)N1CCN(c2ncccn2)CC1 | -7.41%
32 | O=S(c1ccc2ccccc2c1)c1cnns1 (centres unmarked) | -7.2%
33 | O=C(O)COc1ccccc1/C=N/NC(=O)CNC(=O)c1ccco1 | 21%
34 | CCCNC(=O)NC(=O)COC(=O)CNS(=O)(=O)/C=C/c1ccccc1 | 17.3%
35 | C=CCN1C(=Nc2ccccc2)SC/C1=C\C(=O)OC | 0.245%
36 | CCn1nc(C)c(Br)c1-c1nc(-c2cccc(C)c2)no1 | 19.1%
37 | O=C(N/N=C/c1cc(Cl)cc([N+](=O)[O-])c1O)C1CC1 | 0.38%
38 | CCOC(=O)c1csc(CCNC(=O)c2oc3c(Cl)cc(C)cc3c2C)n1 | 10%
39 | O=C(CCS(=O)(=O)c1cccc2nonc12)NCCc1ccccc1Cl | -7.38%
40 | Cc1ccc(-c2nc(C(=O)NCC3CCCO3)cc3c2[nH]c2ccccc23)cc1 (centres unmarked) | 1.66%
41 | COc1ccc2c(c1)[N+](C)(C)C(C)(C)C=C2C.[I-] | 19.7%
42 | NC12CC3CC(C1)CC(CC(=O)O)(C3)C2 | 10.8%
43 | COc1ccc(C(=O)N/N=C/c2ccc(N(C)c3ccccc3)cc2)cc1 | 7.31%
44 | COc1ccc(C2=NS(=O)(=O)N(C)C(C(=O)N3CCOCC3)=C2)cc1OC | -2.16%
